This note sets out measurements from the BET-seq Pho4 binding data (Le et al. 2018).

This is one part of the list. Values were computed here from the reads of four pooled replicates and scatter widely.

The target of this experiment is T1, Pho4 (S. cerevisiae) (UniProt P07270).
T1 sequence: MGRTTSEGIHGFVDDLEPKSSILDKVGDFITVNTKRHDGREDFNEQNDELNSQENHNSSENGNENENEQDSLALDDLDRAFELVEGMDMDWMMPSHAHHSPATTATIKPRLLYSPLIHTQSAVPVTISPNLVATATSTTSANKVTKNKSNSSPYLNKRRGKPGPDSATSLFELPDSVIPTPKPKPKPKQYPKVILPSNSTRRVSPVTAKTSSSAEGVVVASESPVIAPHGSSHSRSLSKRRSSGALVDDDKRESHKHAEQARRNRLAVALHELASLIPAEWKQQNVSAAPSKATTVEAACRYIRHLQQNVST
In words: relative binding free energy (BET-seq); higher = weaker binding. The note with it: reference: library average.
As for TGGTGCACGTGGGTAA, the “relative binding free energy” value was -0.15 kcal/mol. The result for TGATGCACGTGGTCAG reads -0.02 kcal/mol.

Take GGATGCACGTGTCTGT: the “relative binding free energy” value stood at 0.01 kcal/mol. Take GTTTACACGTGAGCTT: the “relative binding free energy” value stood at 0.33 kcal/mol.

On to TGTATCACGTGGTAGC, for which the “relative binding free energy” value came to 0.16 kcal/mol. The result for ACGATCACGTGGGGGA reads -0.04 kcal/mol; that for GGTGTCACGTGTTTTG, 0.03 kcal/mol; that for TGTGACACGTGGGACA, -0.06 kcal/mol. As for GTGTGCACGTGGTGGC, the figure is -0.13 kcal/mol; as for CAGGGCACGTGGATGA, -0.06 kcal/mol; as for ATGTCCACGTGTGTAT, -0.13 kcal/mol.

As to ATGGTCACGTGTGCGC, the “relative binding free energy” value was found to be 0.1 kcal/mol. For the sequence GTATTCACGTGTGCGG, the “relative binding free energy” value was 0.18 kcal/mol. The result for TTCATCACGTGGAGCG reads 0.17 kcal/mol; that for TTTATCACGTGTACTT, 0.19 kcal/mol; that for TTCGCCACGTGGTGTG, -0.28 kcal/mol. The result for GAGGGCACGTGAATGA reads 0.2 kcal/mol. The result for GAGTGCACGTGCTGGT reads -0.02 kcal/mol; that for AAGGTCACGTGTATCG, 0.08 kcal/mol.

In the case of ATTGACACGTGTTTAG, the “relative binding free energy” value stood at 0 kcal/mol. As for GGCCTCACGTGAGGGT, the figure is 0.31 kcal/mol.

On to CAGGCCACGTGATGTG, for which the “relative binding free energy” value was 0.1 kcal/mol. Consider GTTGTCACGTGAGTAC, for which the “relative binding free energy” value is 0.38 kcal/mol.

With ATGATCACGTGTAGGG, the “relative binding free energy” value was 0.2 kcal/mol. As for GGGCTCACGTGTTAAT, the figure is 0.31 kcal/mol; as for CTAAGCACGTGTTGTT, -0.09 kcal/mol; as for AGCTGCACGTGTTTAT, -0.04 kcal/mol. The result for CGTGTCACGTGGTCGG reads 0.05 kcal/mol; that for TTAGCCACGTGTGAGG, -0.02 kcal/mol.

Take GGTGCCACGTGATTTA: the “relative binding free energy” value stood at 0.22 kcal/mol. As for AGGCTCACGTGAGAGT, the figure is 0.46 kcal/mol; as for TCTTGCACGTGAAGAG, 0.27 kcal/mol; as for AGTTTCACGTGCTATG, 0.17 kcal/mol. Regarding TCTATCACGTGTGGGA, the “relative binding free energy” value was 0.05 kcal/mol. As for TGTTGCACGTGTGAAA, the figure is 0.12 kcal/mol; as for TGATACACGTGGTGCA, -0.03 kcal/mol. The result for AGGAACACGTGGTTAA reads 0.06 kcal/mol; that for GCTGTCACGTGGGATT, 0.1 kcal/mol. Turning to AGTAGCACGTGCGTTG, the “relative binding free energy” value is -0.13 kcal/mol. The result for AGGCGCACGTGGCTGG reads -0.23 kcal/mol; that for GTAGGCACGTGCCGTT, -0.15 kcal/mol. As for TGATGCACGTGTCATG, the figure is -0.1 kcal/mol.

For TCGGCCACGTGTGTTG, the “relative binding free energy” value is -0.09 kcal/mol.

As for CATTTCACGTGTTTTG, the “relative binding free energy” value was 0.18 kcal/mol.

ATTTACACGTGGCATA: the “relative binding free energy” value was found to be 0.1 kcal/mol. As for GAGTTCACGTGGTAGT, the figure is 0.4 kcal/mol; as for ATGTCCACGTGGGGAG, -0.07 kcal/mol. As for TCGAGCACGTGATTTG, the figure is 0.11 kcal/mol. As for CGGAGCACGTGAGGAG, the figure is 0.1 kcal/mol.

As to TCGGGCACGTGGGTGG, the “relative binding free energy” value was -0.19 kcal/mol. The result for TAGAACACGTGGGGTG reads -0.15 kcal/mol; that for GCATTCACGTGGAGTG, 0.15 kcal/mol.

In the case of TGTAGCACGTGACTGT, the “relative binding free energy” value is 0.12 kcal/mol.

GCGAGCACGTGGTAGT: the “relative binding free energy” value was -0.2 kcal/mol. As for AGAGCCACGTGGCGGG, the figure is -0.19 kcal/mol; as for GGTATCACGTGAAATT, 0.31 kcal/mol. As for CATGGCACGTGTTGAT, the figure is -0.05 kcal/mol; as for TTATGCACGTGATACT, -0.01 kcal/mol. The result for ATAGTCACGTGTTGGG reads 0.05 kcal/mol; that for GGAGTCACGTGTTTGT, 0.11 kcal/mol; that for TGGTACACGTGGATCT, 0.12 kcal/mol.

With TGTCTCACGTGTGAGC, the “relative binding free energy” value worked out at 0.33 kcal/mol. For AGCGGCACGTGGCATG, the “relative binding free energy” value is -0.25 kcal/mol. The result for ATTGGCACGTGATGGC reads -0.08 kcal/mol. The result for CTGCACACGTGGGGGA reads -0.05 kcal/mol; that for ATGGACACGTGGTTTG, -0.02 kcal/mol; that for TTTTCCACGTGGGTTA, -0.07 kcal/mol.

In the case of AGAGACACGTGTTTTT, the “relative binding free energy” value was 0 kcal/mol.

In the case of TGTTGCACGTGTACGT, the “relative binding free energy” value amounted to 0.05 kcal/mol.

Consider ATCGTCACGTGTATGG, for which the “relative binding free energy” value came out at 0.09 kcal/mol.

For the sequence TCAGTCACGTGTTGAT, the “relative binding free energy” value was -0.07 kcal/mol. The result for GCGTACACGTGGATGG reads 0.01 kcal/mol.

Take GCATGCACGTGGGCGT: the “relative binding free energy” value is -0.14 kcal/mol. As for CAGGGCACGTGTGATT, the figure is 0.13 kcal/mol; as for GGTAGCACGTGATTGC, 0.01 kcal/mol. As for TTCGCCACGTGAGGGG, the figure is 0.14 kcal/mol; as for GGTATCACGTGGGCGG, -0.04 kcal/mol. As for GTATTCACGTGAAGAT, the figure is 0.22 kcal/mol; as for TGGTGCACGTGAAAGC, 0.23 kcal/mol.

As to TGGTGCACGTGAATGC, the “relative binding free energy” value is 0.14 kcal/mol. The result for GAAGGCACGTGGATTG reads 0.02 kcal/mol. On to AGGACCACGTGTGGGT, for which the “relative binding free energy” value was -0.14 kcal/mol. The result for TTGTACACGTGGCGAT reads 0.05 kcal/mol. As for CATATCACGTGTGGAG, the figure is 0.15 kcal/mol; as for TTAATCACGTGTATAT, 0.14 kcal/mol; as for AGGTGCACGTGCGTTA, -0.11 kcal/mol.

TCTTGCACGTGGGTAA: the “relative binding free energy” value was -0.21 kcal/mol.

As to TAGGTCACGTGGTAAA, the “relative binding free energy” value amounted to 0.15 kcal/mol. As for AGGTTCACGTGTGCTT, the figure is 0.25 kcal/mol; as for AATAACACGTGGGGTG, -0.25 kcal/mol. As for GAAGTCACGTGGTCGT, the figure is 0.08 kcal/mol; as for TTAGTCACGTGAGCTG, 0.22 kcal/mol; as for GTTGGCACGTGAGGTT, 0.28 kcal/mol. As for TAAGGCACGTGCGGAG, the figure is -0.17 kcal/mol; as for GCGTACACGTGGGGGT, 0.05 kcal/mol. On to CTAATCACGTGTAAGG, for which the “relative binding free energy” value was 0.31 kcal/mol. The result for AACGTCACGTGTATTT reads 0.11 kcal/mol; that for TTGTTCACGTGCTTTC, 0.2 kcal/mol; that for GTACTCACGTGAGGGT, 0.41 kcal/mol. As for GGTCGCACGTGGGTGA, the figure is -0.16 kcal/mol. The result for GTGGTCACGTGGTGAG reads 0.14 kcal/mol; that for AATAGCACGTGTGGTC, 0.01 kcal/mol.

Consider CCGTGCACGTGGTGTG, for which the “relative binding free energy” value is -0.19 kcal/mol. The result for CTGTGCACGTGGATTT reads 0.05 kcal/mol; that for TGATGCACGTGAATGA, 0.21 kcal/mol. As for ATCGGCACGTGGATCG, the figure is 0.13 kcal/mol; as for TAGTACACGTGATATT, 0.14 kcal/mol.

With TAACTCACGTGTGTTA, the “relative binding free energy” value came out at 0.13 kcal/mol. Take ATGTGCACGTGCCTGT: the “relative binding free energy” value is -0.23 kcal/mol. The result for TAGTTCACGTGACGGC reads 0.43 kcal/mol; that for TGTTTCACGTGGGCAC, 0.06 kcal/mol; that for GCGGTCACGTGTATTA, 0.24 kcal/mol. The result for GTTGTCACGTGTATAA reads 0.16 kcal/mol; that for TTGTGCACGTGAAGAT, 0.11 kcal/mol. The result for AGGCACACGTGTGGTT reads 0.16 kcal/mol.
